Results are given in words; binding and its absence hold for the method and conditions named. In cells and extracts the contact can be indirect. Some entries that bind do so weakly or less than the wild type. For some assays here: Where a sequence is shown, tags or fusion partners need not be part of it. Values belong to the molecule of their own block, whether it stands above or below them.
Assays:
[1] = target: GST-Rab40c (human) (UniProt Q96S21); experiment: pull-down; GST or GST fusion proteins immobilized onto GST-Sepharose-4B resin, incubated with lysates of MCF7 cells transfected with GFP-Rab40 constructs; western blot with GFP antibody; only the target purified
[2] = target: T1, GST-Rab40b (human), Q12829; experiment: as above; settings: remark: other sources report otherwise
T1 chain: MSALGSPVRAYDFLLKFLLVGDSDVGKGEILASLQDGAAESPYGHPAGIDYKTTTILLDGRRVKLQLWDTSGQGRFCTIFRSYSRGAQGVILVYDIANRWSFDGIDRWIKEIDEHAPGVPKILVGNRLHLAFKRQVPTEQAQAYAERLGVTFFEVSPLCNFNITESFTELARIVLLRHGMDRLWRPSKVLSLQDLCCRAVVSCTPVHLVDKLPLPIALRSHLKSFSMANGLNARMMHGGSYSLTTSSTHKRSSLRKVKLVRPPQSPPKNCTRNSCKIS

[3] = target: GST-Rab40c (human) (UniProt Q96S21); experiment: pull-down; GST or GST fusion proteins coupled to GST-Sepharose 4B resin, incubated with 3T3-L1 cell lysates; retained proteins blotted with antibodies against TIP47, Perilipin or ADRP; only the target purified
[4] = target: GST-Rab40c(SOCS) (human) (UniProt Q96S21); experiment: as above
[5] = target: T2, GST-Rab40c (human), Q96S21; experiment: pull-down; GST or GST fusion proteins immobilized onto GST-Sepharose-4B resin, incubated with lysates of MCF7 cells transfected with GFP-Rab40 constructs; western blot with GFP antibody; only the target purified; settings: remark: other sources report otherwise
T2 chain: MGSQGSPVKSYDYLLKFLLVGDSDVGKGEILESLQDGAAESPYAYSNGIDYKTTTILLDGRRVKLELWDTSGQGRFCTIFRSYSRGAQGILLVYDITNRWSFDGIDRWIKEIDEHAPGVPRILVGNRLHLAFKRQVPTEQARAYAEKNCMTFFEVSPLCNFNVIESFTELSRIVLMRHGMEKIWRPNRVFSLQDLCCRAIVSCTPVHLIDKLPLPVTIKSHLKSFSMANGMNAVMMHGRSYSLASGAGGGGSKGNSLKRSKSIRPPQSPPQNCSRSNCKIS

binding [1]: binds
Molecule: GFP-Rab40cQ73L (from UniProt Q96S21 1-281)

binding [1]: no binding
Molecule: GFP-Rab40c(SOCS) (from UniProt Q96S21 1-281)

binding [2]: no binding
B1: GFP-Rab40b, Q12829 1-278 (protein)
chain: T1 chain

binding [3]: no binding
B2: ADRP (adipocyte differentiation related protein or adipophilin) (protein, UniProt P43883 1-425)
chain: MAAAVVDPQQSVVMRVANLPLVSSTYDLVSSAYVSTKDQYPYLRSVCEMAEKGVKTVTSAAMTSALPIIQKLEPQIAVANTYACKGLDRMEERLPILNQPTSEIVASARGAVTGAKDVVTTTMAGAKDSVASTVSGVVDKTKGAVTGSVERTKSVVNGSINTVLGMVQFMNSGVDNAITKSELLVDQYFPLTQEELEMEAKKVEGFDMVQKPSNYERLESLSTKLCSRAYHQALSRVKEAKQKSQETISQLHSTVHLIEFARKNMHSANQKIQGAQDKLYVSWVEWKRSIGYDDTDESHCVEHIESRTLAIARNLTQQLQTTCQTVLVNAQGLPQNIQDQAKHLGVMAGDIYSVFRNAASFKEVSDGVLTSSKGQLQKMKESLDEVMDYFVNNTPLNWLVGPFYPQSTEVNKASLKVQQSEVKAQ

binding [3]: binds | binding [4]: no binding
B3: TIP47 (tail-interacting protein 47 KDa) (protein, UniProt Q9DBG5 1-437)
chain: MSSNGTDAPAEAQAAMEEPVVQPSVVDRVAGLPLISSTYGMVSAAYTSTKENYPHVRTVCDVAEKGVKTLTTAAVSTAQPILSKLEPQIATASEYAHRGLDRLQESLPILQQPTEKVLADTKELVSSTVSGAQEMVSSSVSSAKETVATRVTGAVDVTLGAVQNSVDKTKSAMTSGVQSVMGSRVGQMVISGVDRVLVKSEAWADNRLPLTEAELALIATPPEDSDMASLQQQRQEQNYFVRLGSLSERLRNHAYEHSLGKLQNARQKAQETLQQLTSVLGLMESVKQGVDQRLGEGQEKLHQMWLSWNQKTPQDAEKDPAKPEQVEARALSMFRDITQQLQSMCVALGASIQGLPSHVREQAQQARSQVNDLQATFSGIHSFQDLSAGVLAQTRERIARAREALDNTVEYVAQNTPAMWLVGPFAPGITEKTPEGK

binding [5]: binds
B4: GFP-Rab40c, Q96S21 1-281 (protein)
chain: T2 chain

binding [3]: no binding
B5: Perilipin (protein, UniProt Q8CGN5 1-517)
chain: MSMNKGPTLLDGDLPEQENVLQRVLQLPVVSGTCECFQKTYNSTKEAHPLVASVCNAYEKGVQGASNLAAWSMEPVVRRLSTQFTAANELACRGLDHLEEKIPALQYPPEKIASELKGTISTRLRSARNSISVPIASTSDKVLGATLAGCELALGMAKETAEYAANTRVGRLASGGADLALGSIEKVVEFLLPPDKESAPSSGRQRTQKAPKAKPSLVRRVSTLANTLSRHTMQTTAWALKQGHSLAMWIPGVAPLSSLAQWGASAAMQVVSRRQSEVRVPWLHNLAASQDESHDDQTDTEGEETDDEEEEEESEAEENVLREVTALPNPRGLLGGVVHTVQNTLRNTISAVTWAPAAVLGTVGRILHLTPAQAVSSTKGRAMSLSDALKGVTDNVVDTVVHYVPLPRLSLMEPESEFRDIDNPSAEAERKGSGARPASPESTPRPGQPRGSLRSVRGLSAPSCPGLDDKTEASARPGFLAMPREKPARRVSDSFFRPSVMEPILGRAQYSQLRKKS

From article PMC3640056
